# From publication PMC12820563, “FoxP3 forms a head-to-head dimer in vivo and stabilizes its multimerization on adjacent microsatellites”
# The list shows a part of the results.
# Molecular target: T1, MBP-FoxP1dN (Mus musculus, UniProt P58462 326-579)
# T1 sequence: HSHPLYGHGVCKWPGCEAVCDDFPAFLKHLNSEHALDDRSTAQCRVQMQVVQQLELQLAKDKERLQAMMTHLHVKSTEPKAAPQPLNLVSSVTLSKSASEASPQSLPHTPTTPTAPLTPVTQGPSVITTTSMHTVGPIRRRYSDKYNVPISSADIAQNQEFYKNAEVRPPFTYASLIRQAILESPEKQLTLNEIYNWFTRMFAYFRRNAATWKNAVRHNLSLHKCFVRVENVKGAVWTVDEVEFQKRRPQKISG
# Test: PD-seq (MBP pull-down with sequencing); 20 mM Tris-HCl pH 7.5, 100 mM NaCl, 1.5 mM MgCl2, 0.4 uM protein, 0.1 uM dsDNA library, 30 min, room temperature, amylose pull-down; high values mean tight binding
# Conditions: protein: recombinant; tags: His6-MBP; chain copies: 2; dsDNA, one strand shown
# In short: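 Amylose resin was used to capture complexes formed during 30 min at room temperature in Tris pH 7.5 buffer with NaCl and MgCl2 between 0.4 µM His6-MBP-tagged mouse FoxP3 or FoxP1 fragment lacking the N-terminus, expressed in E. coli, and 0.1 µM Klenow-filled double-stranded degenerate DNA library. After three washes, the DNA was released with proteinase K, barcoded by PCR and sequenced on Illumina. Binding is pooled-replicate reads-per-million enrichment, pull-down over input.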
row,Sequence,binding signal
1,GATGATTGTTCTCCCAGCTGATGAATTGGCTTGATCGAGTAAACAAATTTTCCTAATCTTTCTGTTCAAGCGCCATCTAC,0.863 RPM ratio (pull-down/input)
2,GATGATTGTTCTCCCAGCTGATGAATTCTTATCGTCGAGTAAACAAATTTTCCTAATCTTTCTGTTCAAGCGCCATCTAC,0.945 RPM ratio (pull-down/input)
3,GATGATTGTTCTCCCAGCTGATGAATTTAAACTTTCGAGTAAACAAATTTTCCTAATCTTTCTGTTCAAGCGCCATCTAC,0.882 RPM ratio (pull-down/input)
4,GATGATTGTTCTCCCAGCTGATGAATTCGGATTCTCGAGTAAACAAATTTTCCTAATCTTTCTGTTCAAGCGCCATCTAC,0.844 RPM ratio (pull-down/input)
5,GATGATTGTTCTCCCAGCTGATGAATTTGGACGGTCGAGTAAACAAATTTTCCTAATCTTTCTGTTCAAGCGCCATCTAC,0.86 RPM ratio (pull-down/input)
6,GATGATTGTTCTCCCAGCTGATGAATTTCGCTCGTCGAGTAAACAAATTTTCCTAATCTTTCTGTTCAAGCGCCATCTAC,0.856 RPM ratio (pull-down/input)
7,GATGATTGTTCTCCCAGCTGATGAATTTCATGCCTCGAGTAAACAAATTTTCCTAATCTTTCTGTTCAAGCGCCATCTAC,0.811 RPM ratio (pull-down/input)
8,GATGATTGTTCTCCCAGCTGATGAATTTCCGCACTCGAGTAAACAAATTTTCCTAATCTTTCTGTTCAAGCGCCATCTAC,0.803 RPM ratio (pull-down/input)
9,GATGATTGTTCTCCCAGCTGATGAATTAAAGGGCTCGAGTAAACAAATTTTCCTAATCTTTCTGTTCAAGCGCCATCTAC,0.81 RPM ratio (pull-down/input)
10,GATGATTGTTCTCCCAGCTGATGAATTTTAATTTTCGAGTAAACAAATTTTCCTAATCTTTCTGTTCAAGCGCCATCTAC,1.17 RPM ratio (pull-down/input)
11,GATGATTGTTCTCCCAGCTGATGAATTTACGTTCTCGAGTAAACAAATTTTCCTAATCTTTCTGTTCAAGCGCCATCTAC,1.26 RPM ratio (pull-down/input)
12,GATGATTGTTCTCCCAGCTGATGAATTCGCTGCCTCGAGTAAACAAATTTTCCTAATCTTTCTGTTCAAGCGCCATCTAC,0.822 RPM ratio (pull-down/input)
13,GATGATTGTTCTCCCAGCTGATGAATTGCGCCAGTCGAGTAAACAAATTTTCCTAATCTTTCTGTTCAAGCGCCATCTAC,0.985 RPM ratio (pull-down/input)
14,GATGATTGTTCTCCCAGCTGATGAATTCTGTGTTTCGAGTAAACAAATTTTCCTAATCTTTCTGTTCAAGCGCCATCTAC,1.14 RPM ratio (pull-down/input)
15,GATGATTGTTCTCCCAGCTGATGAATTGCAAGTCTCGAGTAAACAAATTTTCCTAATCTTTCTGTTCAAGCGCCATCTAC,1.11 RPM ratio (pull-down/input)
16,GATGATTGTTCTCCCAGCTGATGAATTTAGCCCCTCGAGTAAACAAATTTTCCTAATCTTTCTGTTCAAGCGCCATCTAC,0.86 RPM ratio (pull-down/input)

row,Sequence,binding signal
1,GATGATTGTTCTCCCAGCTGATGAATTAAGAACGTCGAGTAAACAAATTTTCCTAATCTTTCTGTTCAAGCGCCATCTAC,0.857 RPM ratio (pull-down/input)
2,GATGATTGTTCTCCCAGCTGATGAATTGCCCATTTCGAGTAAACAAATTTTCCTAATCTTTCTGTTCAAGCGCCATCTAC,0.968 RPM ratio (pull-down/input)
3,GATGATTGTTCTCCCAGCTGATGAATTTACTCGTTCGAGTAAACAAATTTTCCTAATCTTTCTGTTCAAGCGCCATCTAC,1.18 RPM ratio (pull-down/input)
4,GATGATTGTTCTCCCAGCTGATGAATTGATAGATTCGAGTAAACAAATTTTCCTAATCTTTCTGTTCAAGCGCCATCTAC,1.12 RPM ratio (pull-down/input)
5,GATGATTGTTCTCCCAGCTGATGAATTAGCATCGTCGAGTAAACAAATTTTCCTAATCTTTCTGTTCAAGCGCCATCTAC,1.12 RPM ratio (pull-down/input)
6,GATGATTGTTCTCCCAGCTGATGAATTCCATGTTTCGAGTAAACAAATTTTCCTAATCTTTCTGTTCAAGCGCCATCTAC,0.972 RPM ratio (pull-down/input)
7,GATGATTGTTCTCCCAGCTGATGAATTATCCATGTCGAGTAAACAAATTTTCCTAATCTTTCTGTTCAAGCGCCATCTAC,0.987 RPM ratio (pull-down/input)
8,GATGATTGTTCTCCCAGCTGATGAATTCCGGGGATCGAGTAAACAAATTTTCCTAATCTTTCTGTTCAAGCGCCATCTAC,0.783 RPM ratio (pull-down/input)
9,GATGATTGTTCTCCCAGCTGATGAATTTCGTAAATCGAGTAAACAAATTTTCCTAATCTTTCTGTTCAAGCGCCATCTAC,1.23 RPM ratio (pull-down/input)
10,GATGATTGTTCTCCCAGCTGATGAATTACTGATTTCGAGTAAACAAATTTTCCTAATCTTTCTGTTCAAGCGCCATCTAC,1.24 RPM ratio (pull-down/input)
11,GATGATTGTTCTCCCAGCTGATGAATTATATGCGTCGAGTAAACAAATTTTCCTAATCTTTCTGTTCAAGCGCCATCTAC,1.27 RPM ratio (pull-down/input)
12,GATGATTGTTCTCCCAGCTGATGAATTCGACGCCTCGAGTAAACAAATTTTCCTAATCTTTCTGTTCAAGCGCCATCTAC,0.928 RPM ratio (pull-down/input)
13,GATGATTGTTCTCCCAGCTGATGAATTGTCATAGTCGAGTAAACAAATTTTCCTAATCTTTCTGTTCAAGCGCCATCTAC,1.1 RPM ratio (pull-down/input)
14,GATGATTGTTCTCCCAGCTGATGAATTGACATACTCGAGTAAACAAATTTTCCTAATCTTTCTGTTCAAGCGCCATCTAC,1.3 RPM ratio (pull-down/input)
15,GATGATTGTTCTCCCAGCTGATGAATTCCAGTGGTCGAGTAAACAAATTTTCCTAATCTTTCTGTTCAAGCGCCATCTAC,0.837 RPM ratio (pull-down/input)
16,GATGATTGTTCTCCCAGCTGATGAATTCATTAAATCGAGTAAACAAATTTTCCTAATCTTTCTGTTCAAGCGCCATCTAC,1.09 RPM ratio (pull-down/input)
